Source: PubChem BioAssay AID1347417 (National Center for Advancing Translational Sciences (NCATS), 2020)
In all, about 120,000 compounds went through this assay and about 5,300 (4.4%) were called active. The shares of active, inactive and inconclusive entries below differ from those in the screen. Calls come from the whole dose curve; as a rule, active = well fitted inhibition curve with a large enough effect; inconclusive = small, poorly fitted or top-dose-only effect; inactive = no such curve, though single readings can be large or run the other way. A potency beside an inconclusive call is a rough fit, not a confirmed value.

test: qHTS Primary assay for Inhibitors of Plasmodium falciparum Dd2 growth in vitro; note: nearly all actives have a fitted effect of over 65% in size;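 for activity, negative = inhibition: plate controls were DMSO vehicle for no effect and reference drug for full effect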; details: P. falciparum Dd2 growth, SYBR Green, 72 h; activity, negative = inhibition: at 28.9 µM (top of the series) unless noted; series mostly up to 28.9 µM
In short: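 Infected erythrocytes (Dd2, 0.3% parasitemia, 2.5% hematocrit final) are added to compound in RPMI-1640/Albumax II medium, grown 72 h at 37C in low oxygen, then lysed with saponin/Triton-X containing SYBR Green and read by fluorescence.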
Potency is the fitted concentration of half-maximal effect; tags give direction and shape of the fitted curve.

| SMILES | Potency | activity, negative = inhibition | outcome |
| --- | --- | --- | --- |
| Cc1cccc(C)c1Nc1c(-c2ccsc2)nc2ccccn12 | inconclusive: 15.8 µM [inhibitor, single point] |  |  |
| COc1ccc(CNC(=O)CCn2nc(C)c3c(C)n(-c4ccccc4)nc3c2=O)cc1OC | inconclusive: 8.91 µM [inhibitor, single point] |  |  |
| O=C(NCCc1ccc(Cl)cc1)C1=NOC2CN(C(=O)Nc3cccnc3)CC12 (stereo unspecified) |  | inactive: -21.8% |  |
| COC(=O)[C@H](CC1CCCCC1)NC(=O)[C@@H]1C[C@@H](NC(=O)Nc2cccc(F)c2)CCN1C(=O)CCC(=O)O | inconclusive: 4.47 µM [inhibitor, partial curve] |  |  |
| CCc1ccc(-n2nc(C)c3c(C(=O)Nc4cccc(C(F)(F)F)c4)cc(C)nc32)cc1 | inconclusive: 20 µM [inhibitor, single point] |  |  |
| Cc1cc(Nc2cccc(C(F)(F)F)c2)nc2ccc(NC(=O)c3ccc(N(C)C)cc3)cc12 | active: 2.82 µM |  |  |
| CC(=O)NC[C@H]1CCN(Cc2cccc(Cl)c2F)C[C@H]1N(C)C | inconclusive: 8.91 µM [inhibitor, partial curve] |  |  |
| COc1nccc(N2CCC(CC(=O)NCc3ccc(F)c(Cl)c3)CC2)n1 | inconclusive: 3.16 µM [inhibitor, partial curve, poor fit] |  |  |
| CCOc1ccccc1CN1CCN(C(=O)[C@H]2CCC[C@H]2NC(=O)c2ccncc2)CC1 | inconclusive: 12.6 µM [inhibitor, single point] |  |  |
| O=C(Cn1cccc1-c1nc(-c2ccc3c(c2)OCO3)no1)NCc1ccc(F)cc1 | inconclusive: 11.2 µM [inhibitor, single point] |  |  |
| COc1cccc(S(=O)(=O)N2CCCN(C)c3ccccc32)c1 |  |  | inactive |
| Cc1ccc(NC(=O)c2c(Nc3ccccc3C)sc(C(=O)c3ccccc3)c2N)cc1 | inconclusive: 17.8 µM [inhibitor, single point] |  |  |
| O=C(NCC(c1ccc2c(c1)OCO2)N1CCN(c2ccccc2)CC1)c1ccccc1F (stereo unspecified) | inconclusive: 17.8 µM [inhibitor, single point] |  |  |
| CCOC(=O)c1ccc(OCC2c3cc(OC)c(OC)cc3CCN2C(=O)Cc2ccc(F)cc2)cc1 (stereo unspecified) | active: 10 µM |  |  |
| Cc1cc(C(F)(F)F)nn1CC(=O)NCC1Cn2cccc2CN1Cc1ccccc1 (stereo unspecified) | inconclusive: 12.6 µM [inhibitor, single point] |  |  |
| CCOC(=O)c1cccc(NC(=O)N2CC[C@@H](CC(=O)N(C)CCC#N)[C@@H](CC)C2)c1 | inconclusive: 11.2 µM [inhibitor, single point] |  |  |
| CC(C)CNC(=O)C(NC(=O)c1ccccc1)C1CCN(C(=O)CC(C)C)CC1 (stereo unspecified) | inconclusive: 11.2 µM [inhibitor, partial curve] |  |  |
| COc1ccc(-c2noc(N(C)Cc3ccccc3)n2)cc1OC | inconclusive: 15.8 µM [inhibitor, single point] |  |  |
| CN(C)CCNC(=O)c1cc2c(n1C)CCN(Cc1ccccc1)C2 | active: 12.6 µM |  |  |
| CC(C)CN1Cc2ccccc2-n2ccnc2C12CCN(C(=O)c1cccc(F)c1)CC2 | inconclusive: 1.41 µM [inhibitor, partial curve, poor fit] |  |  |
| O=C(NCc1ccco1)c1ccc2c(c1)n(Cc1ccc(F)cc1)c(=O)c1ccnn12 | inconclusive: 7.94 µM [inhibitor, partial curve] |  |  |

| SMILES | Potency | activity, negative = inhibition | outcome |
| --- | --- | --- | --- |
| COc1ccc(CCC(=O)N2CCC3(CC2)CN(Cc2ccc(OC)cc2)C3=O)cc1 | inconclusive: 17.8 µM [inhibitor, single point] |  |  |
| CCOc1ccccc1CNC(=O)c1cc2cn(C3CCCC3)cc2s1 | active: 12.6 µM |  |  |
| CC[C@H]1CN(Cc2ccc(OC)cc2O)CC[C@H]1CC(=O)N(C)CC#N | inconclusive: 3.98 µM [inhibitor, full curve, poor fit] |  |  |
| CCCNC(=O)OC[C@H]1C[C@@H]2CCN1C[C@@H]2c1cc(-c2cccs2)nc(C)n1 | inconclusive: 4.47 µM [inhibitor, partial curve, poor fit] |  |  |
| COCCN1C(=O)N(CC(C)C)C(=O)C12CCN(Cc1cnn(-c3ccccc3OC)c1)CC2 | inconclusive: 11.2 µM [inhibitor, single point] |  |  |
| COc1ccc(CN[C@H]2[C@H](O)[C@@H](N3CCC(C(N)=O)CC3)[C@@H]3OC[C@H]2O3)cc1 |  |  | inactive [at 44.1 µM] |
| CN1[C@@H](CCC(=O)NCc2cccnc2)CNC(=O)[C@@H]2[C@H]1CCN2Cc1ccc(S(C)(=O)=O)cc1 |  | inactive: 4.02% |  |
| COc1ccc(C2Cn3cnc(C(=O)N4CCC(C(=O)Nc5ccc(F)c(C)c5)CC4)c3CO2)cc1 (stereo unspecified) | inconclusive: 0.0708 µM [inhibitor, full curve, poor fit] |  |  |
| CN(C)C(=O)c1cccnc1OC1CCN(S(=O)(=O)c2ccc3c(c2)CCCC3)C1 (stereo unspecified) | inconclusive: 20 µM [inhibitor, single point] |  |  |
| O=C(C1CCCC1)N1CCC(c2nc(C3CCOCC3)no2)C1 (stereo unspecified) |  | inactive: 14.3% |  |
| COc1ccc2c(c1)c(CN1CCc3nc(N4CCN(C)CC4)[nH]c(=O)c3CC1)cn2C |  | inactive: -0.355% [at 5.79 µM] |  |
| CCOC(=O)c1ccc(-n2c(N)c(C(=O)OC)c3nc4ccccc4nc32)cc1 | inconclusive: 8.91 µM [inhibitor, single point] |  |  |
| CN(C)C(=O)[C@@H]1CN(Cc2c(F)cccc2Cl)C[C@H]1CO | inconclusive: 4.47 µM [inhibitor, partial curve, poor fit] |  |  |
| O=[S+]1([O-])NCC2(CCN(Cc3ccccc3)CC2)Oc2ncccc21 | inconclusive: 7.94 µM [inhibitor, partial curve, poor fit] |  |  |
| CNCCN1C(=O)CC[C@H]2CN(C(=O)c3ccc(Cl)cn3)CC[C@H]21 |  | inactive: -14.9% |  |
| COc1cc(C(=O)NC2CCCN(c3cc(-c4ccc(F)cc4)[nH]n3)C2)cc(OC)c1OC (stereo unspecified) |  |  | inactive |
| Cc1ccc(NC(=O)Cn2c(=O)n(Cc3ccccc3)c(=O)c3c(C)c(C)sc32)c(C)c1 | inconclusive: 10 µM [inhibitor, single point] |  |  |
| O=C1Nc2ccccc2C12CN(Cc1ccc(C(F)(F)F)cc1)C2 |  | inconclusive: -113% [inhibitor] |  |
| Cc1ccc(C(C)C)c(OCC(=O)Nc2c(C(=O)c3ccccc3)oc3ccccc23)c1 |  | inactive: 10.9% |  |
| Cc1cc(NC(=O)c2ccc3c(c2)N(C)C2CCCCN2C3=O)ccc1Cl (stereo unspecified) | inconclusive: 17.8 µM [inhibitor, single point] |  |  |
| CCn1ncc(CN2CCCCCCNC(=O)[C@@H]3CCC[C@@H]32)c1C | inconclusive: 7.94 µM [inhibitor, partial curve] |  |  |

| SMILES | Potency | activity, negative = inhibition | outcome |
| --- | --- | --- | --- |
| COc1ccc(-c2noc([C@@H]3C[C@@H](O)CN3Cc3cc4ccccc4o3)n2)cc1 | inconclusive: 11.2 µM [inhibitor, single point] |  |  |
| CCC(CC)C(=O)Nc1cccc(-c2nc3cccnc3s2)c1C | inconclusive: 12.6 µM [inhibitor, partial curve, poor fit] |  |  |
| Cc1ccc(NC(=O)N2CCCCC2c2noc(COc3ccc(F)cc3)n2)cc1F (stereo unspecified) | inconclusive: 17.8 µM [inhibitor, single point] |  |  |
| COc1ccccc1-c1nc(S(=O)(=O)c2ccc(Cl)cc2)c(N2CCCCCC2)o1 | inconclusive: 10 µM [inhibitor, single point] |  |  |
| COc1ccc(S(=O)(=O)N2CCCN(C)c3ccccc32)cc1Cl | inconclusive: 17.8 µM [inhibitor, single point] |  |  |
| CCc1ccc(-c2nn(CC(=O)NC3CCCC3)c3c2cnc2ccc(C)cc23)cc1 | inconclusive: 1 µM [inhibitor, single point] |  |  |
| CCOc1cc(C2C(C(=O)OC)=C(C)NC3=C2C(=O)c2ccccc23)ccc1O (stereo unspecified) | inconclusive: 7.94 µM [inhibitor, partial curve] |  |  |
| COc1ccc(-c2[nH]ncc2CN2CCn3nnc(CCC(=O)N4CCCC4)c3C2)cc1 | inconclusive: 10 µM [inhibitor, single point] |  |  |
| COc1ccccc1-c1cc(N2CCOCC2=O)c2cncn2c1 | inconclusive: 22.4 µM [inhibitor, single point] |  |  |
| O=C(Nc1ccc(C(F)(F)F)cc1)C1CCC(CNS(=O)(=O)c2cccc3nsnc23)CC1 (stereo unspecified) | active: 2.82 µM |  |  |
| CCN1C(=O)C2CC3(CCN(Cc4cn[nH]c4-c4ccc(F)cc4)CC3)CN2C1=O (stereo unspecified) | inconclusive: 17.8 µM [inhibitor, single point] |  |  |
| CCc1c(C)c2ccc3c(c2oc1=O)CN(Cc1ccccc1)CO3 | active: 1 µM |  |  |
| CCc1ccc(CN2CCCC3(Cc4ccccc4CNC3=O)C2)s1 (stereo unspecified) | inconclusive: 10 µM [inhibitor, partial curve, poor fit] |  |  |
| CCc1ccc(C2C(C(=O)Nc3ccccc3)=C(C)Nc3c(C(=O)Nc4ccc(C)cc4)cnn32)cc1 (stereo unspecified) | inconclusive: 2.51 µM [inhibitor, full curve, poor fit] |  |  |
| CCc1ccc(S(=O)(=O)c2cn(C)c3cc(N4CCCCC4C)c(F)cc3c2=O)cc1 (stereo unspecified) | inconclusive: 10 µM [inhibitor, single point] |  |  |
| O=C(O)CCCC(=O)N1Cc2ccccc2CC2(CCCN(Cc3ccccn3)C2)C1 (stereo unspecified) | inconclusive: 17.8 µM [inhibitor, single point] |  |  |
| Cc1ccc(S(=O)(=O)NCC(c2ccc(N(C)C)cc2)N2CCCC2)cc1 (stereo unspecified) | inconclusive: 10 µM [inhibitor, partial curve] |  |  |
| COc1cc(OC)cc(-c2nc3n(n2)C(c2ccccc2F)C(C(=O)Nc2cccnc2)=C(C)N3)c1 (stereo unspecified) | inconclusive: 10 µM [inhibitor, single point] |  |  |
| CC1=C[C@@H](CNC(=O)NCc2ccccc2)[C@H](C(C)C)C[C@H]1CC(=O)NCc1cccnc1 | inconclusive: 17.8 µM [inhibitor, single point] |  |  |
